We go through 86 molecules from article PMC4336329 (PLoS ONE, 2015).

The structures appear in SMILES notation. Hit rate of the full screen: of about 310,000 compounds, about 2,200 (0.71%) showed an effect of 50% or more. Effects have a minus sign here. The list shows a part of the results.

Sequence of human ether-à-go-go-related gene (hERG) potassium channel (Q12809 whole entry, looked up): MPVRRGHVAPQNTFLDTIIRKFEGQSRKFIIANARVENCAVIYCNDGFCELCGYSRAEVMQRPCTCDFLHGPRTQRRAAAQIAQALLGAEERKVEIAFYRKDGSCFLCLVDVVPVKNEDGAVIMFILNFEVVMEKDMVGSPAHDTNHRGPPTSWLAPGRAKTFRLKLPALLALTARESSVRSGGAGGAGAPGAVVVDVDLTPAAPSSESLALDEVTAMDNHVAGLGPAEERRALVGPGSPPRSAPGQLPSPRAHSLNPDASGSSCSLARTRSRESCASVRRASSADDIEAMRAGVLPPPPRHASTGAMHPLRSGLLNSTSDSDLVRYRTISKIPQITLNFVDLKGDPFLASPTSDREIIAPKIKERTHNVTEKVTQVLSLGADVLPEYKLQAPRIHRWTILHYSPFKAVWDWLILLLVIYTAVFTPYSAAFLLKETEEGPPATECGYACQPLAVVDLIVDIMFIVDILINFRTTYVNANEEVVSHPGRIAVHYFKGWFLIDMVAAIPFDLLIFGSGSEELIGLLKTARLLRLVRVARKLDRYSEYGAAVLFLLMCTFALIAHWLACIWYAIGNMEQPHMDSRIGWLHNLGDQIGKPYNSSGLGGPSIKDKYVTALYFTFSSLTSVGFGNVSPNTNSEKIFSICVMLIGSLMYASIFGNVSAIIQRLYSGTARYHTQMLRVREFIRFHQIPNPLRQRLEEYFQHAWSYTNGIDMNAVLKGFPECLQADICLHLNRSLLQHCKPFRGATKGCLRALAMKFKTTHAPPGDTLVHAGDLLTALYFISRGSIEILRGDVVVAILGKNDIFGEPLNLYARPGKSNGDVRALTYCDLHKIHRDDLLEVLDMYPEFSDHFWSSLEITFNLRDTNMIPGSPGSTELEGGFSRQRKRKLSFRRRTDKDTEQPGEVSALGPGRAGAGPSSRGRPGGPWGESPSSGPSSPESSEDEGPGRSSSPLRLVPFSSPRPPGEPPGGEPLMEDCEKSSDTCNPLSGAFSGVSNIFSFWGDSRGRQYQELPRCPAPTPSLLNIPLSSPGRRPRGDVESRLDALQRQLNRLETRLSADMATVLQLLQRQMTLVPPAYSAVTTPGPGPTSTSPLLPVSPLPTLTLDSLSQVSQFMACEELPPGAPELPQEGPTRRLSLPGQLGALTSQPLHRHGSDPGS

This assay concerns the target human ether-à-go-go-related gene (hERG) potassium channel (human, UniProt Q12809). As to the kind of experiment: primary screen, population patch clamp on CHO cells stably expressing hERG.
`CN(CC(=O)Nc1cccc(F)c1)C(=O)c1ccccc1OCCOc1ccccc1`: the “hERG current change (%, negative = inhibition) at 1uM” value is listed as 8.56%.
As for `CSc1ccc(CCNC(=O)CN2C(=O)c3cccnc3Oc3ccc(C)cc32)cc1`, the “hERG current change (%, negative = inhibition) at 1uM” value was -5.21%.
As for `O=C(NC(=S)Nc1cccc([N+](=O)[O-])c1)c1ccccc1`, the figure is 12.4%.
Consider `COc1cc(OC)c(C2=NOC(C(=O)Nc3c(C)n(C)n(-c4ccccc4)c3=O)C2)cc1Cl` (centres unmarked), for which the “hERG current change (%, negative = inhibition) at 1uM” value is 13.1%.
For `CSc1ccc(S(=O)(=O)Nc2ccc(N3CCOCC3)c(Cl)c2)cc1`, the “hERG current change (%, negative = inhibition) at 1uM” value turned out to be 11.3%.
Turning to `CCCCNC(=S)NC(=O)c1ccc(Cl)cc1Cl`, the “hERG current change (%, negative = inhibition) at 1uM” value turned out to be 13.1%.
Take `N#Cc1nc(-c2cccs2)oc1NCC1CCCO1` (centres unmarked): the “hERG current change (%, negative = inhibition) at 1uM” value is listed as 7.22%.
As for `Nc1nonc1-c1noc(CCCOc2ccc(Cl)cc2Cl)n1`, the figure is -4.56%; as for `O/N=C1\CCCc2ccc(Cl)cc21`, -3.21%; as for `COc1cccc(N2CCN(S(=O)(=O)c3ccc4c(c3)N(C(C)=O)CCO4)CC2)c1`, -3.26%.
On to `O=C(NCCc1ccc(Cl)cc1)c1ccc(NC2=NC3CS(=O)(=O)CC3S2)cc1` (centres unmarked), for which the “hERG current change (%, negative = inhibition) at 1uM” value was determined as 21.6%.
In the case of `COc1cc(S(=O)(=O)Nc2ncccc2C)c(OC)cc1Cl`, the “hERG current change (%, negative = inhibition) at 1uM” value turned out to be 7.45%.
Take `CC1=C(C(=O)OCc2ccccc2)C(c2cccnc2)c2c(n(C)c(=O)n(C)c2=O)N1` (centres unmarked): the “hERG current change (%, negative = inhibition) at 1uM” value is on record as -8.56%.
As for `O=C1NC(c2ccccc2)=N/C1=C/c1ccco1`, the figure is 0.383%; as for `O=C(Nc1ncccn1)c1ccc(Cl)c([N+](=O)[O-])c1`, 13.7%.
For `O=C(COC(=O)Cc1ccc(Br)cc1)NC1CCCCCC1`, the “hERG current change (%, negative = inhibition) at 1uM” value worked out at 11.4%.
Turning to `COc1cc(C=C2C(=O)OC(C)(C)OC2=O)ccc1OCC(=O)Nc1ccccc1`, the “hERG current change (%, negative = inhibition) at 1uM” value worked out at 14.3%.
Take `CCN(CC)CCN1C(=O)C(=O)/C(=C(/O)c2ccc(OC)c(OC)c2)C1c1ccccn1` (centres unmarked): the “hERG current change (%, negative = inhibition) at 1uM” value is recorded as 10.3%.
Regarding `O=C(Nc1ccc(-c2n[nH]c(=S)o2)cc1)c1ccccc1Cl`, the “hERG current change (%, negative = inhibition) at 1uM” value was found to be 13.8%.
On to `COc1ccccc1C(CNc1ncnc2sc(C)c(C)c12)N(C)C` (centres unmarked), for which the “hERG current change (%, negative = inhibition) at 1uM” value is recorded as -2.91%.
In the case of `COc1ccc(CCN2C(=O)c3cccnc3C2=O)cc1OC` it was 12.2%.
Consider `COc1ccc(NC(=O)c2ccc3c(c2)S(=O)(=O)c2ccccc2C3=O)cc1`, for which the “hERG current change (%, negative = inhibition) at 1uM” value was 9.56%.
For `CN1OC[C@@H]2COc3ccc4ccccc4c3[C@@H]21`, the “hERG current change (%, negative = inhibition) at 1uM” value worked out at 16.9%.
In the case of `CCOc1ccc(CNS(=O)(=O)c2c(C)nc3scc(C)n3c2=O)cc1OC`, the “hERG current change (%, negative = inhibition) at 1uM” value stood at 14.6%.
With `COCCNC(=O)Cn1cc(/C=C(\C#N)C(=O)NC2CCCC2)c2ccccc21`, the “hERG current change (%, negative = inhibition) at 1uM” value stood at 13.7%.
In the case of `CN(CC(=O)Nc1cccc(F)c1)C(=O)c1cn(-c2ccccc2)nc1-c1ccc(F)cc1`, the “hERG current change (%, negative = inhibition) at 1uM” value was 2.27%.
With `Oc1cccc(C=NCc2ccccc2)c1O`, the “hERG current change (%, negative = inhibition) at 1uM” value stood at 4.4%.
As for `Cc1nn(-c2ccccc2)c2[nH]c(=O)c(CNCCN3CCOCC3)cc12`, the figure is -1.61%.
Regarding `Cc1ccc(C(=O)Nc2ccc(C(=O)N3CCCCC3C)cc2)cc1` (centres unmarked), the “hERG current change (%, negative = inhibition) at 1uM” value is given as -2%.
As for `N#CC(=C=[N-])c1nc2ccccc2nc1-[n+]1ccccc1`, the “hERG current change (%, negative = inhibition) at 1uM” value is -4.73%.
In the case of `Clc1cccc(Cl)c1COc1ccccn1` it was 14.5%; in that of `COc1cc(NC(=O)CSc2nnc3c(C)cc4c(C)ccc(C)c4n23)c(C(=O)O)cc1OC`, 17.3%.
`CC(C)(C)c1cc(O)c(C(C)(C)C)cc1O`: the “hERG current change (%, negative = inhibition) at 1uM” value was 6.92%.
With `Cc1ccc(C2(C)NC(=O)N(CC(=O)NCc3cccs3)C2=O)cc1` (centres unmarked), the “hERG current change (%, negative = inhibition) at 1uM” value stood at 12.5%.
As for `Cc1cc(NC(=O)/C=C/c2ccc(Br)cc2)no1`, the “hERG current change (%, negative = inhibition) at 1uM” value was 18.2%.
As for `CCc1ccccc1N1CC(C(=O)O)CC1=O` (centres unmarked), the figure is -24.2%.
As for `CCOc1ccc(CN(Cc2ccco2)C(c2cccs2)c2nnnn2C(C)(C)C)cc1` (centres unmarked), the figure is 3.91%.
Consider `COCCCN1C(=O)C(=O)/C(=C(/O)c2ccc(S(=O)(=O)N3CCCCC3)cc2)C1c1ccc(O)cc1` (centres unmarked), for which the “hERG current change (%, negative = inhibition) at 1uM” value was 23.6%.
Consider `COC(=O)c1sc(NC(=O)Cc2cccs2)nc1C`, for which the “hERG current change (%, negative = inhibition) at 1uM” value came out at 12%.
In the case of `COc1ccc(C)cc1S(=O)(=O)Nc1cccc(Cl)c1Cl` it was 18.4%; in that of `O=C(CCCCCN1C(=O)c2ccccc2C1=O)Nc1ccccc1F`, 12.5%.
With `COCCn1c(C)cc(C(=O)Cn2nc(C(=O)O)c3ccccc3c2=O)c1C`, the “hERG current change (%, negative = inhibition) at 1uM” value worked out at 13.2%.
With `Cn1c(=O)n(C)c2cc(/C=N/NC(=S)NCc3ccccc3)ccc21`, the “hERG current change (%, negative = inhibition) at 1uM” value was 0.876%.
As for `CC(C)(C)NC(=O)C(c1ccc(O)cc1)N(C(=O)CCC(=O)Nc1nccs1)c1cccc(F)c1` (centres unmarked), the “hERG current change (%, negative = inhibition) at 1uM” value is 12.7%.
Regarding `CN1CCN(c2nc3c(c(=O)[nH]2)CCC3)CC1`, the “hERG current change (%, negative = inhibition) at 1uM” value amounted to 18.2%.
In the case of `OCCCNCc1cccc2ccccc12` it was 8.15%; in that of `Cc1ccc(C(=O)NNC2CC(=O)N(c3ccc4c(c3)OCCO4)C2=O)cc1` (centres unmarked), 0.129%.
As to `O=C(CCn1cnnn1)N1CCCC(Nc2ccc(F)cc2)C1` (centres unmarked), the “hERG current change (%, negative = inhibition) at 1uM” value turned out to be 5.33%.
As for `CN(C)c1ccc(C2SCCN2C(=O)c2ccc([N+](=O)[O-])cc2)cc1` (centres unmarked), the figure is -25.9%; as for `COCCCNC(=O)c1ccc(Cn2c(=O)c3ccccc3n(Cc3ccccc3C#N)c2=O)cc1`, 8.63%.
For the molecule `Cc1ccc(NC(=O)COC(=O)C2C3CC4OC(=O)C2C4C3)cc1` (centres unmarked), the “hERG current change (%, negative = inhibition) at 1uM” value amounted to 6.18%.
`COC(=O)c1ccc(/C=C(/NC(=O)c2ccccc2)C(=O)N2CCOCC2)cc1`: the “hERG current change (%, negative = inhibition) at 1uM” value came to 18%.
With `OCCOc1cccc(CN2CCC(CO)(CCOc3ccccc3)CC2)c1`, the “hERG current change (%, negative = inhibition) at 1uM” value is reported as -2.72%.
For the molecule `COc1ccc(NC(=O)c2sc3nc(-c4cccnc4)ccc3c2N)cc1OC`, the “hERG current change (%, negative = inhibition) at 1uM” value came to 4.52%.
For `Cc1ccc(N2CCN(c3cc(C)nc4nc(C)nn34)CC2)c(C)c1`, the “hERG current change (%, negative = inhibition) at 1uM” value was -32.9%.
For the molecule `O=C(COC(=O)CCN1C(=O)c2ccccc2C1=O)Nc1ccccc1[N+](=O)[O-]`, the “hERG current change (%, negative = inhibition) at 1uM” value is 16.6%.
Turning to `CCOc1ccc(CN2CCN(CC3=Cc4cccc(OC)c4OC3)CC2CCO)cc1` (centres unmarked), the “hERG current change (%, negative = inhibition) at 1uM” value is -71.4%.
Take `Cn1c(Cn2c(=O)sc3ccccc32)nnc1SCc1ccccc1`: the “hERG current change (%, negative = inhibition) at 1uM” value is -1.16%.
As to `CCOC(=O)Cn1c(=O)c(-c2cc(Br)ccc2N)nc2ccccc21`, the “hERG current change (%, negative = inhibition) at 1uM” value came to 13.1%.
As for `Cc1ccccc1N1CCN(Cc2cc3c(cc2[N+](=O)[O-])OCO3)CC1`, the “hERG current change (%, negative = inhibition) at 1uM” value was determined as 12.4%.
With `CC1(c2cccc(Br)c2)NC(=O)N(CC(=O)N2CCc3ccccc32)C1=O` (centres unmarked), the “hERG current change (%, negative = inhibition) at 1uM” value was 3.34%.
In the case of `CC(C)(C)C(=O)OC[N+](C)(C)CCOC(=O)C(O)(c1ccccc1)C1CCCC1.[Cl-]` (centres unmarked) it was 12.7%; in that of `Cc1ccccc1-c1nnc(SCC(=O)Nc2ccc(Cl)cc2)n1N`, 12.5%.
As to `CCOC(=O)Cc1csc(NC(=O)Cn2c(=O)oc3ccccc32)n1`, the “hERG current change (%, negative = inhibition) at 1uM” value was 14.5%.
Regarding `COc1cccc(CC2(CO)CCCN(Cc3[nH]c4ccc(C)cc4c3C)C2)c1` (centres unmarked), the “hERG current change (%, negative = inhibition) at 1uM” value was -6.47%.
Take `CC(=O)Nc1cccc2ncccc12`: the “hERG current change (%, negative = inhibition) at 1uM” value was found to be 10.2%.
With `CCCCc1nnc(NC(=O)CSc2nc(=O)cc(N)n2-c2cccc(C)c2)s1`, the “hERG current change (%, negative = inhibition) at 1uM” value amounted to 6.36%.
With `Cc1cc(C(=O)Nc2c(C)n(C)n(-c3ccccc3)c2=O)c2ccccc2n1`, the “hERG current change (%, negative = inhibition) at 1uM” value was determined as 7.33%.
As to `CCOc1ccc(CN2CCN(C/C=C/c3ccc(OC)cc3)CC2CCO)cc1` (centres unmarked), the “hERG current change (%, negative = inhibition) at 1uM” value is given as -77.1%.
As for `Cc1ccc(C(O)CCc2ccc(N)cc2)cc1` (centres unmarked), the figure is 8.65%; as for `O=C(Nc1cccc(-c2nc3ccccc3o2)c1)c1ccc(N2C(=O)C3C4C=CC(C4)C3C2=O)cc1` (centres unmarked), -1.08%.
On to `O=C(CSc1nc(-c2ccccc2)cc(C(F)(F)F)n1)NCc1ccco1`, for which the “hERG current change (%, negative = inhibition) at 1uM” value came to 1.13%.
With `CCC(=O)N/C(=N\OCc1ccc(F)cc1)c1nonc1NC(=O)CC`, the “hERG current change (%, negative = inhibition) at 1uM” value came out at 16.8%.
As for `CCOC(=O)c1nnn(CC(=O)N2N=C(c3ccccc3)CC2c2ccccc2)c1C(=O)OCC` (centres unmarked), the “hERG current change (%, negative = inhibition) at 1uM” value came to 6.3%.
With `CCn1nc(C)c(CN2CCC(n3nccc3NC(=O)Cc3ccccc3)CC2)c1C`, the “hERG current change (%, negative = inhibition) at 1uM” value amounted to 10.3%.
For `O=C(NN=C(c1ccccc1)c1ccccc1)C(CCl)C1CCCCC1` (centres unmarked), the “hERG current change (%, negative = inhibition) at 1uM” value worked out at 2.47%.
As to `Cc1cc(OCC(=O)N2C[C@H]3C[C@@H](C2)c2cccc(=O)n2C3)c2c(C)cc(=O)oc2c1`, the “hERG current change (%, negative = inhibition) at 1uM” value worked out at 3.15%.
For the molecule `O=C(COc1ccc(C(=O)NCCc2ccccc2)cc1)Nc1ccccc1`, the “hERG current change (%, negative = inhibition) at 1uM” value came to 12.9%.
In the case of `Cc1csc(SCC(=O)Nc2sc3c(c2C#N)CCC3)n1` it was -1.64%; in that of `COc1ccccc1Nc1nc(NCCO)nc(N2CCCC2)n1`, 0.663%; in that of `COc1ccc(S(=O)(=O)NNC(=O)C23CC4CC(CC(C4)C2)C3)cc1`, -1.16%.
With `Fc1ccccc1NC(=S)N(CCN1CCCCC1)Cc1ccco1`, the “hERG current change (%, negative = inhibition) at 1uM” value was -14.1%.
As for `Cc1ccc(NC(=O)CN(c2cc(C)cc(C)c2)S(=O)(=O)c2c(C)noc2C)nc1`, the figure is -6.14%; as for `CCOC(=O)c1[nH]c2ccccc2c1NC(=O)CC`, 9.17%; as for `O=C(NC(=O)c1cc[nH+]cc1)NC(c1ccccc1)c1ccccc1.[Cl-]`, 7.78%.
Take `CCCN(C(=O)COC(=O)CCOc1ccc(C)cc1)c1c(N)n(Cc2ccccc2)c(=O)[nH]c1=O`: the “hERG current change (%, negative = inhibition) at 1uM” value is -6.19%.
